Test results from the supplement of paper PMC11166567.
Some of the results follow.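 How the source made its calls: active = permutation test q below 0.05 after Benjamini-Hochberg correction; inactive = q of 0.05 or more.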

Test system: U2OS
Experiment: mean average precision of replicate retrieval against DMSO controls (Cell Painting phenotypic activity) (fraction (0-1)); higher = stronger, more reproducible morphological phenotype distinct from DMSO; extreme values may be limits of the assay
Conditions: 24 h; 5 µM
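Further: cosine similarity of well-level aggregated Cell Painting profiles ranks each compound's replicate wells against DMSO wells, four replicate plates, significance from 100,000 rank shuffles.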

Structure (SMILES) | mean average precision
Cc1cnc(Nc2ccc(OCCN3CCCC3)cc2)nc1Nc1cccc(S(=O)(=O)NC(C)(C)C)c1 | active: 1
O=c1cc(-c2cccc3c2Sc2ccccc2S3)oc(N2CCOCC2)c1 | active: 0.958
Cc1ccc(NC2=CC(=O)c3sc(C)nc3C2=O)cc1 | active: 1
CC(C)c1cc(-c2n[nH]c(=O)n2-c2ccc3c(ccn3C)c2)c(O)cc1O | active: 1
O=C(NNC(=O)c1ccc(CNS(=O)(=O)c2ccc(F)c(Cl)c2)cc1)c1ccccc1 | active: 0.588
S=C(S)N1CCCC1 | active: 1
CC(NC(=O)CCc1nc2ccccc2c(=O)[nH]1)c1ccccc1 (centres undefined) | inactive: 0.261
Cc1ccc(Sc2cncc3sc(C(N)=O)cc23)cc1 | active: 1
CC(C)C[C@H](NC(=O)[C@@H](NC(=O)c1cccc(-c2ccccc2)n1)[C@@H](C)O)B(O)O | active: 1
NC(CSSCC(N)C(=O)O)C(=O)O (centres undefined) | inactive: 0.127
CCCCc1nc(-c2ccc(OCCCN(CC)CC)cc2)cn1-c1ccc(Oc2ccc(Cl)cc2)cc1 | active: 1
Cn1ncc(Cl)c1-c1cc(C(=O)N[C@H](CN)Cc2cccc(F)c2)sc1Cl | active: 1
C[C@@H]1C[C@H]2[C@@H]3CCC4=CC(=O)C=C[C@]4(C)[C@@]3(F)[C@@H](O)C[C@]2(C)[C@@]1(O)C(=O)CO | active: 0.939
CN[C@H]1C(=O)N[C@@H]2Cc3ccc(cc3)Oc3cc4cc(c3O[C@@H]3O[C@H](C(=O)O)[C@@H](O)[C@H](O)[C@H]3NC(=O)CCCCCCCCC(C)C)Oc3ccc(cc3Cl)[C@@H](O)[C@@H]3NC(=O)[C@H](NC(=O)[C@@H]4NC(=O)[C@@H](NC2=O)c2cc(cc(O)c2Cl)Oc2cc1ccc2O)c1ccc(O)c(c1)-c1c(O[C@H]2O[C@H](CO)[C@@H](O)[C@H](O)[C@@H]2O)cc(O)cc1[C@@H](C(=O)NCCCN(C)C)NC3=O | inactive: 0.306
FC(F)OC(Cl)C(F)(F)F (centres undefined) | inactive: 0.0824
Cc1ccnc2c1NC(=O)c1cccnc1N2C1CC1 | active: 0.487
Cc1cc(Nc2ncc(Cl)c(Nc3ccccc3S(=O)(=O)C(C)C)n2)c(OC(C)C)cc1C1CCNCC1 | active: 1
CCn1c(=O)[nH]c2ccccc21 | active: 0.579
NC(=O)Nc1cc(-c2cccc(F)c2)sc1C(=O)N[C@H]1CCCNC1 | active: 1
CCCC(=O)O | active: 1

Same assay, conditions: 48 h; 5 µM

Structure (SMILES) | mean average precision
O=C1C(SCCO)=C(SCCO)C(=O)c2ccccc21 | active: 1
Nc1ccn([C@H]2C[C@H](O)[C@@H](CO)O2)c(=O)n1 | inactive: 0.0773
CCC(c1ccc(O)cc1)C(CC)c1ccc(O)cc1 (centres undefined) | inactive: 0.31
CC(C)(N)C(=O)N[C@H](COCc1ccccc1)C(=O)N1CCC2(CC1)CN(S(C)(=O)=O)c1ccccc12 | active: 0.37
CN1CCc2nc(C(=O)N[C@H]3C[C@H](C(=O)N(C)C)CC[C@@H]3NC(=O)C(=O)Nc3ccc(Cl)cn3)sc2C1 | inactive: 0.166
CCOC(=O)[C@H](C)C[C@@H](Cc1ccc(-c2ccccc2)cc1)NC(=O)CCC(=O)O | inactive: 0.0874
CCOc1ccccc1N=Nc1c(C)[nH]n(-c2nc(-c3ccccc3)cs2)c1=O | active: 0.466
COC(=O)C[C@](O)(CCCC(C)(C)O)C(=O)O[C@@H]1C(OC)=C[C@]23CCCN2CCc2cc4c(cc2[C@H]13)OCO4 | active: 1
N#CC1(c2ccc(NC(=O)c3cccnc3NCc3ccncc3)cc2)CCCC1 | active: 0.476
OCc1ccc(-c2nn(Cc3ccccc3)c3ccccc23)o1 | active: 0.791
CO[C@@H](C(=O)N1Cc2[nH]nc(NC(=O)c3ccc(N4CCN(C)CC4)cc3)c2C1)c1ccccc1 | active: 0.911
Cc1nc(Nc2n[nH]c3c2CN(C(=O)N[C@H](CN(C)C)c2ccccc2)C3(C)C)c2sccc2n1 | active: 0.379
Cc1nc2n(c(=O)c1CCN1CCC(c3noc4cc(F)ccc34)CC1)CCCC2O (centres undefined) | inactive: 0.224
Nc1ncnc2c1c(-c1cnc3[nH]ccc3c1)nn2C1CCCC1 | active: 1
Cc1cnc(Nc2ccc(OCCN3CCCC3)cc2)nc1Nc1cccc(S(=O)(=O)NC(C)(C)C)c1 | active: 1
O=c1cc(-c2cccc3c2Sc2ccccc2S3)oc(N2CCOCC2)c1 | active: 0.896
Cc1ccc(NC2=CC(=O)c3sc(C)nc3C2=O)cc1 | active: 1

Structure (SMILES) | mean average precision
CC(C)c1cc(-c2n[nH]c(=O)n2-c2ccc3c(ccn3C)c2)c(O)cc1O | active: 1
O=C(NNC(=O)c1ccc(CNS(=O)(=O)c2ccc(F)c(Cl)c2)cc1)c1ccccc1 | active: 0.422
S=C(S)N1CCCC1 | active: 1
CC(NC(=O)CCc1nc2ccccc2c(=O)[nH]1)c1ccccc1 (centres undefined) | active: 0.544
Cc1ccc(Sc2cncc3sc(C(N)=O)cc23)cc1 | active: 0.578
CC(C)C[C@H](NC(=O)[C@@H](NC(=O)c1cccc(-c2ccccc2)n1)[C@@H](C)O)B(O)O | active: 1
NC(CSSCC(N)C(=O)O)C(=O)O (centres undefined) | inactive: 0.0729
CCCCc1nc(-c2ccc(OCCCN(CC)CC)cc2)cn1-c1ccc(Oc2ccc(Cl)cc2)cc1 | active: 1
Cn1ncc(Cl)c1-c1cc(C(=O)N[C@H](CN)Cc2cccc(F)c2)sc1Cl | active: 1
C[C@@H]1C[C@H]2[C@@H]3CCC4=CC(=O)C=C[C@]4(C)[C@@]3(F)[C@@H](O)C[C@]2(C)[C@@]1(O)C(=O)CO | active: 0.889
CN[C@H]1C(=O)N[C@@H]2Cc3ccc(cc3)Oc3cc4cc(c3O[C@@H]3O[C@H](C(=O)O)[C@@H](O)[C@H](O)[C@H]3NC(=O)CCCCCCCCC(C)C)Oc3ccc(cc3Cl)[C@@H](O)[C@@H]3NC(=O)[C@H](NC(=O)[C@@H]4NC(=O)[C@@H](NC2=O)c2cc(cc(O)c2Cl)Oc2cc1ccc2O)c1ccc(O)c(c1)-c1c(O[C@H]2O[C@H](CO)[C@@H](O)[C@H](O)[C@@H]2O)cc(O)cc1[C@@H](C(=O)NCCCN(C)C)NC3=O | inactive: 0.0937
FC(F)OC(Cl)C(F)(F)F (centres undefined) | inactive: 0.124
Cc1ccnc2c1NC(=O)c1cccnc1N2C1CC1 | active: 0.534
Cc1cc(Nc2ncc(Cl)c(Nc3ccccc3S(=O)(=O)C(C)C)n2)c(OC(C)C)cc1C1CCNCC1 | active: 0.946
CCn1c(=O)[nH]c2ccccc21 | active: 0.468
NC(=O)Nc1cc(-c2cccc(F)c2)sc1C(=O)N[C@H]1CCCNC1 | active: 1
CCCC(=O)O | active: 0.967
